Source: the supplement of paper PMC10126150
Sequences with one replicate were seen in a single cluster, so their values are uncertain.

Test system: ATP
Assay: switch fluorescence ratio, 500 uM ATP over buffer (Cy3 cluster intensity, sum of 5 cycles each) (fold (ratio)); higher = stronger signal-on switching upon ATP binding; sequences stand for … in TCGTCGGCAGCGTCAGATGTGTATAAGAGACAGTTTTTTTTTTTTTTTTTTTTTTTTT…TC
Details: aptamer strand: ATP DNA aptamer (quencher-CACCTGGGGGAGTATTGCGGAGGAAGG + anchor), 100 nM annealed; ATP concentration: 500 uM; one replicate
Outline: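 Five buffer/ATP imaging cycles were run on Cy3-labelled switching-strand clusters on a modified Illumina MiSeq flow-cell, with NaOH stripping and re-annealing between cycles. In each cycle, clusters annealed to 100 nM quencher-labelled ATP aptamer were imaged in selection buffer, then after 15 min with 500 uM ATP at 22 °C. Per cluster, the fluorescence ratio is summed target-cycle over summed buffer-cycle Cy3 intensity, averaged per switch-domain sequence. Only clusters within 100-1000 RFU were kept.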
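Also: ATP exposure 15 min at 22 °C before imaging.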

Row | Sequence | switch fluorescence ratio
1 | ATGGTTCGGC | 0.939
2 | TACTCGAA | 1.01
3 | GTATTACTTT | 0.998
4 | GTTGCGTGAG | 0.978
5 | TCTCAAGCGG | 1.16
6 | GCGTGACAG | 1.01
7 | ATGTCGGTCT | 0.959
8 | AACTAATCGT | 0.996
9 | CGGCGAAGAA | 1.02
10 | GCGGGACATT | 1.05
11 | TAACAGTACG | 1.24
12 | AGTGTAGGTA | 1.05
13 | AATCTTAATT | 0.943
14 | CATGAGCTAA | 1.05
15 | AAATATGGGG | 1.04
16 | GCTATGGCGA | 1.03
17 | ATAAATTTG | 0.967
18 | GAGTGCAAA | 1.02
19 | GATTGGACAT | 1
20 | AGACGGGCGC | 0.998
21 | GCTCGCAAGT | 1.17
22 | ATCGCTTTTT | 0.997
23 | ATAGAGGACT | 1.01

Row | Sequence | switch fluorescence ratio
24 | GTAGTAAGAG | 1.13
25 | GCATGCCGCG | 0.987
26 | ACCGGCGAAT | 1.04
27 | AAACTGACT | 1.16
28 | TGTAGTTCAG | 1.02
29 | TTGCACGTCC | 1.13
30 | TTGTAATTTG | 1.01
31 | GCTGTGGGAC | 0.998
32 | AGAAGGCGGT | 0.979
33 | AGCAGTCATG | 0.988
34 | TTAGGTCAGC | 0.944
35 | TCATAAAATT | 0.979
36 | TATACATCTA | 1.02
37 | TCGCGCGCCG | 0.942
38 | AATTGAAAGT | 1.05
39 | CTTTCGCTGC | 2.97
40 | ATGTTGTTTT | 0.96
41 | CCTTGGATGT | 0.984
42 | CGTATACGCC | 0.992
43 | ACGACGGTTT | 1.01
44 | TCCCGTGTTG | 1
45 | AAGTTAATGC | 1.2
46 | CGTCAGCACG | 1.06

Row | Sequence | switch fluorescence ratio
47 | GACCGCGGCG | 0.953
48 | AATTCGGAGA | 1.01
49 | CGGGGTAGC | 0.961
50 | CGACTGCGAA | 1.55
51 | CTCTTTAATA | 1.01
52 | GGGCAAAAAT | 1.03
53 | GGGCAACTAA | 1.03
54 | TCATCTCCAA | 1.23
55 | ATGATAAGAA | 1.01
56 | CAACAAGGCG | 1.02
57 | TCACATTCGT | 1.02
58 | AGTGCACATT | 0.997
59 | TAACCTGTTG | 0.996
60 | CCATGCCTTT | 0.997
61 | CGGGCTATAT | 1.29
62 | CTGCGCGAGA | 1.12
63 | TCTGCAACTT | 1.15
64 | GCCGCGCTGG | 1.03
65 | GATCGTTTCG | 0.989
66 | CACTATGGTT | 1.01
67 | GGGAGGATAA | 0.988
68 | GTGCATTTTT | 0.981
69 | GGTTCTACAA | 1.01

Row | Sequence | switch fluorescence ratio
70 | CTATGTCTGT | 0.989
71 | GGAGCCCGTG | 0.954
72 | TAATTAGCAA | 1.89
73 | AGCGCATAGC | 1.02
74 | CATTGCTAAA | 1.04
75 | TTCTTTTAAC | 1.07
76 | ATTATGAGC | 1.02
77 | TACCGCGTTT | 0.967
78 | GCTAGTTAG | 1.01
79 | ATGTTGTAA | 0.997
80 | GCCGCCTGCT | 1.03
81 | GTAAGAAACC | 1.14
82 | ACTGCATACC | 1.59
83 | GGTGACGGCC | 0.931
84 | AAGGTCATTG | 1.01
85 | CTGGGAACAT | 1.01
86 | TGCGTTCGAT | 1.02
87 | TAATCCAGG | 1.24
88 | GATCTGGGTC | 1.03
89 | GACTGTGCGT | 1.01
90 | TCTAATAGCA | 1.01
91 | CATCAGCACT | 3.26
92 | AAACATTCT | 1.2

Row | Sequence | switch fluorescence ratio
93 | AGGAGTCGCG | 0.959
94 | GCACGTATGC | 1.02
95 | CGTTGGGATG | 0.964
96 | CATCCATTGT | 0.969
97 | TGTTTACGAG | 0.999
98 | AAGAATCGC | 1.01
99 | TTCGTCCCA | 0.982
100 | TTTGTGGTAA | 0.997
101 | CCATCCTTCT | 1.11
102 | TGTTGATGCG | 1.05
103 | ATTCGCTACC | 1.49
104 | AATTCGGCAA | 1.75
105 | ATGTATACAC | 1.02
106 | TCTGGGTTGC | 0.987
107 | AAATTCGCCC | 0.974
108 | GCATACGGCA | 1.04
109 | TGAACGGTCG | 1.02
110 | CGATTAAAAG | 0.986
111 | TATTATACTT | 1.03
112 | ACACGGCTAA | 0.987
113 | GATAAAGCAG | 1.04
114 | CGTTTTGAGA | 1.06
115 | TGCAATGTCT | 1.06

Row | Sequence | switch fluorescence ratio
116 | GTCGTAAGGT | 0.993
117 | ATAATACATT | 0.99
118 | ACGTGGGACC | 0.976
119 | CGGAAGCCTT | 1.01
120 | TTCTAACA | 1.06
121 | CAAATGGAAC | 1.04
122 | CTGTGTTTAG | 0.974
123 | AGGTCAGGTA | 0.982
124 | AAGCACCAAA | 1.22
125 | GGGCTGCAT | 1
126 | CTGTCAGTA | 1.02
127 | TGGGGAGG | 0.978
128 | GTGGAAGATG | 1.04
129 | CCAACTCGTG | 1.01
130 | AGCCGTTGTC | 0.993
131 | TTGCTTTCAC | 0.997
132 | ATGTGCGGTT | 1.03
133 | TTGTCCAGCT | 0.977
134 | GTTAGTTTCA | 1.04
135 | GGTAAAGGAG | 0.985
136 | TATCGGGCG | 0.984
137 | ACAGTGGCAG | 0.967
138 | GGCGCCTTG | 1.3

Row | Sequence | switch fluorescence ratio
139 | AATACAGGGG | 1.01
140 | TGAAGGCCCA | 0.996
141 | GCGAGTTATC | 1
142 | GTTTCAAAGT | 1.02
143 | GAGCAATGTA | 1.33
144 | CAAAGGACC | 0.985
145 | GAGTGTGCAA | 1.09
146 | CAACGTTGAG | 0.947
147 | GAATTTTCAG | 0.991
148 | TTGCCCCATT | 0.958
149 | GACTCCTTTT | 1.08
150 | TTTCGTCGA | 1.01
151 | GCACAAGAGG | 1.01
152 | ACCCAGGAAC | 1.11
153 | GCAATGTTTG | 1.13
154 | ACGCGTAGAA | 1.01
155 | CGAGCACTGG | 1.35
156 | CTAGTTTAGT | 1
157 | CATACATTT | 0.996
158 | TCACCTAAGC | 1.09
